# Reference: PubChem BioAssay AID1948 (National Center for Advancing Translational Sciences (NCATS), 2009)
# Hit rate of the full screen: of about 110,000 compounds, about 20 (0.02%) were called active. Inconclusive means that the source gave no clear call. Such entries were picked first, then a sample of the others. Calls come from the whole dose curve; as a rule, active = well fitted activation curve with a large enough effect; inconclusive = small, poorly fitted or top-dose-only effect; inactive = no such curve, though single readings can be large or run the other way. Potencies of inconclusive entries are left out as doubtful fits.
# Experiment: qHTS Assay for Compounds that Induce Erasure of Genomic Imprints;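 for activity change, positive = activation: 0% = negative control wells on the plate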
# Conditions: mouse ES Peg3-LacZ reporter, beta-gal luminescence, 40 h; activity change, positive = activation: at 10.9 µM (top of the series) unless noted
# Outline: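 Imprint erasure is scored as LacZ activity from the silenced maternal Peg3 allele in feeder-free female ES cells cultured 40 h with LIF. Luminescence is normalized to in-plate negative controls and fitted to the Hill equation.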
# Potency is the fitted concentration of half-maximal effect; tags give direction and shape of the fitted curve.
SMILES,"activity change, positive = activation",Potency
CCOc1ccccc1NC(=O)CSc1nnc2[nH]c(=O)cc(-c3ccccc3)n12,inconclusive: 43.4% [activator],–
O=c1c(CCc2ccccc2)nc2cnc(Nc3ccccc3)nc2n1C[C@H]1CCCO1,–,"inconclusive [activator, single point]"
CCn1c(SCC(=O)Nc2nccs2)nnc1-c1ccncc1,–,"inconclusive [activator, single point]"
CNC(=O)c1c(NC(=O)c2ccc(S(=O)(=O)N3CCCCC3)cc2)sc2c1CCC2,inactive: 2.92%,–
COc1ccc(-c2cc(C(F)(F)F)nc(S(C)(=O)=O)n2)cc1,inactive: -11.6%,–
C=CCNC(=O)CN(c1cccc(Br)c1)S(C)(=O)=O,–,"inconclusive [activator, single point]"
CCNc1nc(N)nc(Oc2ccc(OCCOc3ccc(Cl)cc3Cl)nn2)n1,inactive: -18.6% [at 60.7 µM],–
CO[C@H]1C=CO[C@]2(C)Oc3c(C)c(O)c4c(O)c(c5c(c4c3C2=O)NC2(CCN(CC(C)C)CC2)N=5)=NC(=O)C(C)=CC=C[C@@H](C)[C@@H](O)[C@@H](C)[C@@H](O)[C@@H](C)[C@@H](OC(C)=O)[C@@H]1C,inactive: -5.28% [at 16.8 µM],–
O=C(Nc1cc2c(cc1C(=O)c1ccccc1)OCCO2)c1ccc(Br)cc1,inactive: -17%,–
O=C(NCc1nnc2n1CCCCC2)c1ccc(Cl)cc1Cl,–,"inconclusive [activator, single point]"
COc1cc2nc(NCCC(C)C)n3nc(-c4ccccc4)nc3c2cc1OC,inconclusive: 207% [activator],–
CSCCC(NS(=O)(=O)c1ccc2c(c1)oc(=O)n2C)C(=O)N1CCN(c2cc(C)ccc2C)CC1 (configuration not stated),inactive: -4.98%,–
CN(C)c1ncc2nc(-c3ccccc3)c(=O)n(-c3ccccc3)c2n1,–,"inconclusive [activator, single point]"
COc1cccc(-c2cc(C(=O)Nc3cccc(O)c3)no2)c1,inactive: -73.5% [at 60.7 µM],–
Cc1c(C(=O)Nc2ccccc2F)sc2ncnc(N(C)C3CCCCC3)c12,inactive: -15.5%,–
CC(=O)Nc1ccc(S(=O)(=O)N(C)c2ccccc2)cc1,–,"inconclusive [activator, single point]"
Cc1ccccc1NC(=O)CCn1nc(-c2ccccc2)c2ccccc2c1=O,inactive: -10.1%,–
COc1ccc(C)cc1NS(=O)(=O)c1cccc2cccnc12,inactive: -9.15% [at 60.7 µM],–
Cc1ccc2oc(-c3cccc(NC(=O)c4ccc(N5CCC(C)CC5)c([N+](=O)[O-])c4)c3)nc2c1,inactive: -13.1%,–
COc1ccc(CNc2nc3c(-c4cccc(F)c4)nnn3c3ccccc23)cc1,inactive: -8.33%,–
CC(C)N(Cc1ccccc1)C(=O)Cn1ncc2c3ccccc3n(Cc3ccccc3)c2c1=O,inconclusive: 58.7% [activator],–
Cc1ccc(-n2c(=O)c3c4c(sc3n(CC(=O)Nc3cccc(Cl)c3)c2=O)CCCCC4)cc1C,inconclusive: 39.8% [activator],–
Cc1ccc(S(=O)(=O)N2CCCC2C(=O)OCc2ccco2)cc1 (configuration not stated),–,"inconclusive [activator, single point]"
CCCOc1cccc(C(=O)N(Cc2cc(OC)c(OC)c(OC)c2)C2CCS(=O)(=O)C2)c1 (configuration not stated),inconclusive: 34.4% [activator],–

SMILES,"activity change, positive = activation",Potency
CCOc1cccc2cc(-c3nc4sc5c(c4c(=O)[nH]3)CCC(C)C5)c(=O)oc12 (configuration not stated),inconclusive: 30.4% [activator],–
COc1cccc(Cn2c(=O)n(-c3ccc(Br)cc3F)c(=O)c3sc4ccccc4c32)c1,inactive: 2.41%,–
COc1ccc(CCNC(=O)NCc2noc3ccc(C)cc23)c(OC)c1,inconclusive: 30.3% [activator],–
CC(C)N(C(=O)Cn1cc(S(=O)(=O)Cc2ccc(C(F)(F)F)cc2)c2ccccc21)C(C)C,inconclusive: 72.1% [activator],–
Cc1ccc(CC(=O)Nc2c(C(=O)N3CCN(c4ccccc4F)CC3)oc3ccccc23)cc1,inactive: -12.2%,–
COc1ccc(Oc2ncc3nc(-c4cn(C)c5ccccc45)c(=O)n(C)c3n2)cc1,–,"inconclusive [activator, single point]"
CC(=O)/C(C(=N)N1CCN(Cc2ccccc2)CC1)=C(\C)O,–,"inconclusive [activator, single point]"
CCN(C(=O)c1cn(C)c(=O)c2cc(OC)c(OC)cc12)c1cc(C)ccc1C,–,"inconclusive [activator, full curve, poor fit]"
CCc1ccc(CNc2nc3nc(C)c(Cc4ccccc4)c(=O)n3[nH]2)cc1,inactive: -8.77%,–
O=C(NCCCn1ccnc1)c1ccco1,–,"inconclusive [activator, single point]"
COc1ccc(C(=O)N2CCCCC2CCN2CCCCC2)cc1 (configuration not stated),inconclusive: 30.6% [activator],–
C/C(=C\CO)CCC(C)CCCC(C)CCCC(C)C (configuration not stated),–,"inconclusive [activator, single point]"
CCN1C(=O)CC(N2CCC(C(=O)OC)CC2)C1=O (configuration not stated),–,"inconclusive [activator, single point]"
O=C(NCc1cccs1)N[C@@H](Cc1ccccc1)C(=O)O,–,"inconclusive [activator, single point]"
O=C(O)CCn1nnc(-c2cccs2)n1,inactive: 0.376% [at 60.7 µM],–
Cc1nc2ccccc2n1-c1nc(-c2ccco2)cc(C(F)(F)F)n1,inactive: -4.47% [at 60.7 µM],–
Cc1cc(C)cc(NC(=O)N2CCC(N3CCCCC3)CC2)c1,inconclusive: 37.1% [activator],–
Cc1ccc(S(=O)(=O)c2nc(-c3ccccc3F)oc2N2CCCCC2)cc1,inconclusive: 30.9% [activator],–
Cc1ccc(Nc2c3c(nc4ncnn24)CCC3)cc1,inactive: 8.57% [at 60.7 µM],–
COc1cccc(-c2nnc3n(Cc4ccc(F)cc4)c(=O)c4ccccc4n23)c1,inconclusive: 43.7% [activator],–
CN(C)S(=O)(=O)c1cccc(C(=O)N2CCN(Cc3ccccc3)CC2)c1,–,"inconclusive [activator, single point]"
CC(C)(C)OC(=O)N1CCC(c2c(C(=O)NCc3ccc4c(c3)OCO4)cnn2-c2ccc(F)cc2F)CC1,inactive: 6.16%,–
COc1ccc(Br)cc1CNC(=O)CCCn1c(=O)c2cccn2c2ccccc21,inconclusive: 32.2% [activator],–
CCN(CC)C(=O)CSc1nc2cc3c(cc2c(=O)n1Cc1ccc(C(=O)NCCc2ccc(OC)c(OC)c2)cc1)OCO3,inconclusive: 75.2% [activator],–

SMILES,"activity change, positive = activation",Potency
CCCCOc1ccc(N(CC(=O)NC2CCCC2)C(=O)CCC(=O)Nc2ccccn2)cc1,–,"inconclusive [activator, single point]"
O=C(CCSc1ccccc1)NCC1CCCO1 (configuration not stated),–,"inconclusive [activator, single point]"
COc1ccc(S(=O)(=O)N2CCC(NC(=O)Nc3ccc(C)cc3)CC2)cc1,–,"inconclusive [activator, single point]"
COc1cccc(NC(=O)CSC2=Nc3ccccc3C3=NC(CC(=O)NCc4cccs4)C(=O)N23)c1 (configuration not stated),inconclusive: 77.4% [activator],–
Cc1ccc(NC(=O)C(=O)NCC(c2cccnc2)N2CCN(C)CC2)cc1 (configuration not stated),inconclusive: 90.3% [activator],–
CCn1c(/C=N/n2cnnc2)nc2ccccc21,inactive: -5.19% [at 60.7 µM],–
CCOC(=O)c1ccc(CN(Cc2ccc(OC)cc2)S(=O)(=O)c2cccc(C(F)(F)F)c2)cc1,inactive: -17%,–
Cc1nc(N2CCCC2)c2c(C(=O)N3CCN(c4cc(Cl)ccc4C)CC3)c(C)oc2n1,inconclusive: 36.1% [activator],–
COc1ccc(S(=O)(=O)Nc2cccc(-c3ccc(N4CCC(C)CC4)nn3)c2)c(OC)c1,inactive: -7.49%,–
Cc1oc2ncnc(N3CCCCC3)c2c1C(=O)NCC1CCN(Cc2cccc(F)c2)CC1,inconclusive: 80.9% [activator],–
C=C(C)C1CC[C@]2(CO)CC[C@@]3(C)[C@H](CCC4[C@@]5(C)CCC(O)C(C)(C)C5CC[C@@]43C)C12 (some centres not stated),–,"inconclusive [activator, partial curve, poor fit]"
Cc1ccc(Cl)cc1NC(=O)CCC(=O)N1CC(C)Sc2ccccc21 (configuration not stated),inconclusive: 30.2% [activator],–
O=C(NCc1ccccc1)C1CCN(S(=O)(=O)N2CCOCC2)CC1,–,"inconclusive [activator, single point]"
Cn1c(=O)c2c(SCC(=O)NCC3CCCO3)nc(-c3cccs3)nc2n(C)c1=O (configuration not stated),–,"inconclusive [activator, single point]"
COc1nc(N)nc2c1ncn2[C@@H]1C[C@H](O)[C@@H](CO)O1,–,"inconclusive [activator, single point]"
CCOC(=O)c1cccc(NC(=O)c2cc3sccc3n2Cc2ccc(Cl)cc2)c1,inactive: -21.3%,–
NCOC(=O)Cc1ccc(Br)cc1,inactive: 3.66%,–
N#CCCSCc1ccc(C(=O)O)o1,–,"inconclusive [activator, single point]"
O=C(Cn1ncc2c(=O)oc3ccccc3c21)Nc1cc(F)ccc1F,inconclusive: 30.9% [activator],–
CCNc1ncc2nc(-c3ccc(OC)cc3)c(=O)n(C)c2n1,–,"inconclusive [activator, partial curve]"
O=C(CCC(=O)N1Cc2ccccc2Oc2ncccc21)Nc1ccc(Cl)cc1,inconclusive: 37.7% [activator],–
COc1ccccc1Cn1c(CNS(=O)(=O)c2c(C)cc(C)cc2C)nc2cccnc21,inconclusive: 71.6% [activator],–
COc1ccccc1CNC(=O)c1cc2sccc2n1Cc1ccc(F)cc1,inconclusive: 45.3% [activator],–
COC(=O)c1cc2sccc2n1Cc1ccc(F)cc1,inconclusive: 35.3% [activator],–
